Data taken from PubChem BioAssay AID1745845 (National Center for Advancing Translational Sciences (NCATS), 2022).
Screen size: about 360,000 compounds; about 2,600 (0.72%) were called active. The shares of active, inactive and inconclusive entries below differ from those in the screen. Calls follow the shape of the dose curve; as a rule, active = well fitted inhibition curve with a large enough effect; inconclusive = small, poorly fitted or top-dose-only effect; inactive = no such curve, though single readings can be large or run the other way. A potency beside an inconclusive call is a rough fit, not a confirmed value.

Assay: Primary qHTS for Inhibitors of ATXN expression; also: nearly all actives have a fitted effect of over 55% in size
Settings: HEK-293 ATXN2-luciferase reporter, luminescence, 24 h; activity change, negative = inhibition: at 57 µM (top of the series)
Outline: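 ATXN2-luciferase reporter cells (luciferase flanked by upstream and downstream ATXN2 gene portions) were treated 24 h at 37 °C with compounds at up to 57 uM. SteadyGlo luminescence gave expression; GF-AFC fluorescence gave viability.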
% is scaled to controls: 0 for no effect and ±100 for the full control effect; potency is read from the fitted curve at half-maximal effect; tags tell the direction and shape of the fitted curve.

With `Cc1ccc(Nc2cc(C)nc3nncn23)c(C)c1` as the compound, how does the “activity change, negative = inhibition” value read?
Its value is inactive: 5.86%.

For `O=C1OC(/C(=C\Nc2ccccc2)[N+](=O)[O-])c2ccccc21` (stereo unspecified), which “activity change, negative = inhibition” value is on record?
The value was inactive: 0.299%.

Which Potency does the source give for `COC(=O)[C@]12CCCCC=C1N(Cc1ccc(Cl)cc1Cl)C(=O)[C@H](CC(=O)NCc1cccc(C(F)(F)F)c1)C2` here?
The Potency was inconclusive: 31.6 µM [inhibitor, single point].

With `COc1cc2oc(=O)cc(-c3cccc(-c4ccc(C(F)(F)F)cc4)c3)c2c(OC)c1OC` as the compound, how does the “activity change, negative = inhibition” value read?
Its value is inactive: -6.27%.

For `CCOC(=O)c1c(C)[nH]c(C(=O)OCC(=O)Nc2ccc(OCC)cc2)c1C`, which Potency is on record?
Its Potency is inconclusive: 22.4 µM [inhibitor, single point].

For `Oc1ccc(Br)cc1/C=N/n1c(C2CCCCC2)n[nH]c1=S`, which “activity change, negative = inhibition” value is on record?
The value was inactive: -7.77%.

Which “activity change, negative = inhibition” value does the source give for `O=C(CSc1ncc2c(n1)-c1ccccc1N(Cc1ccc(F)cc1)S2(=O)=O)NCCc1ccccc1` here?
Its value is inactive: 7.37%.

Which Potency does the source give for `CCN(CC)S(=O)(=O)c1ccc2[nH]c(=O)cc(C(=O)Nc3ccc(C)c(S(=O)(=O)N(CC)CC)c3)c2c1` here?
The Potency was inconclusive: 29.9 µM [inhibitor, partial curve, poor fit].

For `Cc1ccc(S(=O)(=O)/N=C2\C=C(Nc3cccc(C(=O)O)c3)C(=O)c3ccccc32)cc1`, which Potency is on record?
Its Potency is inconclusive: 39.8 µM [inhibitor, single point].

For `COc1ccc(C2CC(=O)N(CC(=O)Nc3ccc(C)c(Cl)c3)c3ccccc3S2)cc1OC` (stereo unspecified), which “activity change, negative = inhibition” value is on record?
Its value is inactive: 11.4%.

With `C=CCn1c(SCC(=O)c2[nH]c(C)c(C(=O)OCC)c2C)nc2scc(-c3ccc(OC)cc3)c2c1=O` as the compound, how does the Potency read?
The Potency was inconclusive: 25.1 µM [inhibitor, partial curve, poor fit].

Which Potency does the source give for `COc1ccc(N2CCN(C(=O)CNC(=O)c3ccc(C(C)(C)C)cc3)CC2)cc1` here?
The Potency was inconclusive: 31.6 µM [inhibitor, partial curve, poor fit].

Which Potency does the source give for `Cc1[nH]n2c(=O)c3c(nc2c1-c1ccc(Cl)cc1)CCC3` here?
Its Potency is inconclusive: 17.8 µM [inhibitor, partial curve, poor fit].

Which Potency does the source give for `Nc1nc(CCl)nc(Nc2ccc3ccccc3c2)n1` here?
Its Potency is active: 3.77 µM.

For `CC(C)Oc1cccc(C(=O)C2CCCN(Cc3cnc(N4CCOCC4)s3)C2)c1` (stereo unspecified), which Potency is on record?
Its Potency is inconclusive: 10 µM [inhibitor, partial curve].

Which Potency does the source give for `O=C(CSc1ccc(-c2ccccn2)nn1)Nc1cccc(F)c1` here?
Its Potency is inconclusive: 31.6 µM [inhibitor, single point].

With `O=C(Nc1ccc(Sc2ccc(Br)cc2)cc1)c1ccco1` as the compound, how does the Potency read?
Its Potency is inconclusive: 10 µM [inhibitor, partial curve, poor fit].

With `O=C(CCl)N(c1ccccc1)C1CCS(=O)(=O)C1` (stereo unspecified) as the compound, how does the Potency read?
Its Potency is inconclusive: 17.8 µM [inhibitor, partial curve, poor fit].

Which activity change, negative = inhibition does the source give for `COc1ccccc1N1C(=O)c2cccc3cccc(c23)C1=O` here?
The activity change, negative = inhibition was inconclusive: -46.6% [inhibitor].

For `C[C@@H](c1ccccc1)N1C[C@@H](COCc2ccccc2)Oc2cc(N3CCC[C@@H]3CO)ccc2S1(=O)=O`, which “activity change, negative = inhibition” value is on record?
The value was inactive: -9.08%.

For `Cc1ccc(C(=O)c2cn(Cc3ccccc3C)c3nc(C)ccc3c2=O)cc1`, which Potency is on record?
The Potency was inconclusive: 31.6 µM [inhibitor, single point].

With `CCOc1ccc(CN2CCc3nc(N4CCN(c5ccccn5)CC4)ncc3C2)cc1OC` as the compound, how does the Potency read?
The Potency was inconclusive: 3.98 µM [inhibitor, partial curve].

For `c1ccc(N2CCN(CC3CCCCC3)CC2)cc1`, which “activity change, negative = inhibition” value is on record?
Its value is inactive: -15.8%.

For `CCOc1ccc(NC(=O)COc2ccc(C(=O)NC3CCCc4ccccc43)cc2OC)cc1` (stereo unspecified), which Potency is on record?
The Potency was inconclusive: 31.6 µM [inhibitor, partial curve, poor fit].

Which “activity change, negative = inhibition” value does the source give for `Cc1ccc(CSc2nc3c(cc2C#N)CCC3)cc1` here?
The value was inactive: 5.91%.

Which Potency does the source give for `COc1cccc(/C=N/Nc2ncnc3scc(-c4ccccc4)c23)c1O` here?
The Potency was active: 1.12 µM.

For `COc1ccc(-c2cc(-c3ccccc3O)[nH]n2)cc1`, which “activity change, negative = inhibition” value is on record?
Its value is inactive: 116%.

For `Cc1ccc(NC(=O)C2CCCN(S(=O)(=O)c3ccc4[nH]c(=O)ccc4c3)C2)c(C)c1` (stereo unspecified), which Potency is on record?
Its Potency is inconclusive: 28.2 µM [inhibitor, partial curve, poor fit].

Which “activity change, negative = inhibition” value does the source give for `COc1ccccc1CN1CCNC(=O)C1=O` here?
Its value is inactive: 5.3%.

With `CC1c2cc3c(cc2CCN1C(=O)c1cccc(F)c1)OCCCO3` (stereo unspecified) as the compound, how does the “activity change, negative = inhibition” value read?
Its value is inactive: -9.06%.

For `COc1cc2c(cc1OC)C(COc1ccc(F)cc1)N(C(=O)c1cccc(F)c1)CC2` (stereo unspecified), which Potency is on record?
Its Potency is inconclusive: 31.6 µM [inhibitor, single point].

For `CCOc1ccc(Br)cc1/C(C)=N\NC1=NCCN1`, which “activity change, negative = inhibition” value is on record?
The value was inactive: -36.9%.

Which Potency does the source give for `COc1ccc(N2CCN(c3cc(C)nc4ccc(OC)cc34)CC2)cc1` here?
The Potency was inconclusive: 12.6 µM [inhibitor, partial curve, poor fit].

For `Cc1ccc(C(NC(=O)N2CCCCC2)=C(Cl)Cl)cc1F`, which Potency is on record?
The Potency was inconclusive: 20 µM [inhibitor, partial curve, poor fit].

Which Potency does the source give for `COC(=O)c1c[nH]c2c1-c1cc(C(=O)OCc3ccccc3)n(S(=O)(=O)c3ccc(C)cc3)c1C(=O)C2=O` here?
Its Potency is inconclusive: 29.9 µM [inhibitor, partial curve, poor fit].

For `Cc1ccc(C(CC(=O)Nc2ccc(C)cc2C)N2Cc3ccccc3C2=O)cc1` (stereo unspecified), which Potency is on record?
Its Potency is inconclusive: 20 µM [inhibitor, single point].

With `CN[C@@H]1C[C@H]2O[C@@](C)([C@H]1OC)n1c3ccccc3c3c4c(c5c6ccccc6n2c5c31)C(=O)N[C@H]4O` as the compound, how does the Potency read?
The Potency was active: 1.22 µM.

With `C=CCc1c(C)nc2c(OC)cccc2c1Cl` as the compound, how does the “activity change, negative = inhibition” value read?
The value was inactive: 27.7%.

With `Cc1cn([C@H]2C[C@H](O)[C@@H](CNC/C=C/c3ccccc3[N+](=O)[O-])O2)c(=O)[nH]c1=O` as the compound, how does the “activity change, negative = inhibition” value read?
Its value is inactive: -5.61%.

For `CCn1c2ccccc2c2cc(/C=N/n3cn[nH]c3=S)ccc21`, which Potency is on record?
Its Potency is inconclusive: 11.2 µM [inhibitor, partial curve, poor fit].

Which “activity change, negative = inhibition” value does the source give for `CC(C)NC(=O)N(C)C[C@H]1OCCCC[C@H](C)Oc2ccc(NC(=O)NC3CCCCC3)cc2C(=O)N([C@H](C)CO)C[C@@H]1C` here?
The value was inactive: -10.1%.

With `O=C(Nc1nccs1)c1ccc(N2C(=O)C3CCCCC3C2=O)cc1` (stereo unspecified) as the compound, how does the “activity change, negative = inhibition” value read?
The value was inactive: -2.95%.

For `Cc1cc(C)nc(/N=C(\N)Nc2ccccc2-c2ccccc2)n1`, which Potency is on record?
Its Potency is inconclusive: 11.9 µM [inhibitor, partial curve, poor fit].

Which “activity change, negative = inhibition” value does the source give for `COc1ccc(CNCC(O)(c2ccccc2)c2ccc(F)cc2)cc1` (stereo unspecified) here?
Its value is inactive: -23.3%.

With `COC(=O)c1cc(CNC(=O)c2ccc(O)c(Cl)c2)ccc1OC` as the compound, how does the Potency read?
Its Potency is inconclusive: 3.98 µM [inhibitor, single point].

With `O=C(CCCCCNC(=O)N1CCn2c1nc1ccccc12)N[C@@H](C(=O)O)c1ccccc1` as the compound, how does the “activity change, negative = inhibition” value read?
The value was inactive: 2.62%.

Which Potency does the source give for `Cc1cccc(NC(=O)CNC(=O)Cn2ncc(Cl)c(Cl)c2=O)c1C` here?
The Potency was inconclusive: 37.7 µM [inhibitor, single point].

For `C#CCSc1nnc(-c2cc3c(C(F)(F)F)nn(C)c3s2)n1C`, which “activity change, negative = inhibition” value is on record?
The value was inactive: 6.71%.

With `COc1ccc(Cc2c(-c3ccc(F)cc3)nc3cc(C)c(Br)c(C)n23)c(C)c1` as the compound, how does the “activity change, negative = inhibition” value read?
Its value is inactive: 29.1%.

With `CCCN(C(=O)CCn1cnc2onc(-c3ccc(F)cc3)c2c1=O)c1ccccc1C` as the compound, how does the Potency read?
The Potency was inconclusive: 28.2 µM [inhibitor, single point].

For `Clc1ccccc1Nc1nc(NCC2CC2)nc2ccsc12`, which “activity change, negative = inhibition” value is on record?
Its value is inactive: -15.8%.

Which Potency does the source give for `CC1(c2nnc(-c3ccc(F)cc3)o2)CC(c2c(Cl)cccc2Cl)=NO1` (stereo unspecified) here?
Its Potency is inconclusive: 10 µM [inhibitor, partial curve, poor fit].

For `C/C(CCC12CC3CC(CC(C3)C1)C2)=N\NC(N)=S`, which Potency is on record?
Its Potency is inconclusive: 22.4 µM [inhibitor, single point].

Which Potency does the source give for `CN(C)C(=O)c1cccc(-c2cnc3c(NC=O)cc(-c4cc(F)c(F)c(F)c4)cn23)c1` here?
The Potency was inconclusive: 25.1 µM [inhibitor, partial curve, poor fit].

For `Cc1cc(NC(=O)COC(=O)c2oc3c(ccc4ccccc43)c2C)no1`, which Potency is on record?
Its Potency is inconclusive: 25.1 µM [inhibitor, partial curve, poor fit].

For `CCOC(=O)C1=C(c2ccc(OC)cc2)C(=O)c2ccccc2C1=O`, which Potency is on record?
The Potency was active: 5.01 µM.

Which “activity change, negative = inhibition” value does the source give for `CC1=CN2C(=N)/C(=C/c3ccco3)C(=O)N=C2S1` here?
Its value is inactive: 71.7%.

With `CCOC(=O)c1cc(-c2ccc3c(c2)OCCO3)nc2c1c(C)nn2CCC#N` as the compound, how does the “activity change, negative = inhibition” value read?
The value was inactive: -7.93%.

With `CC(C)N1CCC(C)(C(=O)Nc2cccc(Oc3ccccc3)c2)C1` (stereo unspecified) as the compound, how does the “activity change, negative = inhibition” value read?
The value was inactive: 9.47%.

For `CCc1ccc2[nH]c3nc(SCC(=O)NNC(=O)c4ccc(C(C)(C)C)cc4)nnc3c2c1`, which Potency is on record?
The Potency was inconclusive: 11.2 µM [inhibitor, partial curve].

For `O=C(O)COc1ccccc1-c1ccccc1`, which “activity change, negative = inhibition” value is on record?
The value was inactive: 20.7%.

Which “activity change, negative = inhibition” value does the source give for `COc1cc(NC(=O)CN(C)S(=O)(=O)c2ccc3c(c2)CC(C)N3C(C)=O)cc(OC)c1OC` (stereo unspecified) here?
Its value is inactive: 3.13%.

Which “activity change, negative = inhibition” value does the source give for `Cc1onc(-c2ccccc2)c1C(=O)N[C@@H]1C(=O)N2[C@@H](C(=O)O)C(C)(C)S[C@@H]12` here?
The value was inactive: 4.82%.

Which “activity change, negative = inhibition” value does the source give for `O=C(Nc1ccc(Cl)cn1)c1ccc(Oc2ccccc2)cc1` here?
The value was inactive: 30.8%.

With `Cc1nn(Cc2ccc(Cl)cc2)c(C)c1NC(=O)c1cc(C(C)C)on1` as the compound, how does the Potency read?
Its Potency is inconclusive: 25.1 µM [inhibitor, single point].

Which “activity change, negative = inhibition” value does the source give for `CCCn1c(NC(=O)c2ccc(F)cc2)nc2ccccc21` here?
The value was inactive: 12%.

For `COc1ccccc1NC(=S)N(CCCN1CCOCC1)Cc1cn(C)c2ccccc12`, which Potency is on record?
Its Potency is inconclusive: 16.8 µM [inhibitor, partial curve, poor fit].

Which Potency does the source give for `CS(=O)(=O)c1sc(C#N)c2c1C(=O)CC(c1ccccc1)C2` (stereo unspecified) here?
The Potency was active: 5.01 µM.

Which Potency does the source give for `NC(=O)[C@H]1CC2(CC(c3cccc(NC(=O)COc4ccc(Cl)cc4)c3)=NO2)CN1C(=O)c1ccccc1C(=O)c1ccccc1` (stereo partly specified) here?
The Potency was inconclusive: 28.2 µM [inhibitor, single point].

For `Cc1[nH]n2c(=O)cc(C(C)C)nc2c1-c1ccccc1`, which “activity change, negative = inhibition” value is on record?
The value was inactive: -27.5%.

For `Cc1cc(S(=O)(=O)Nc2cccc(-c3ccc(N4CCOCC4)nn3)c2)c(C)cc1Cl`, which Potency is on record?
Its Potency is inconclusive: 39.8 µM [inhibitor, single point].
